The whole screen tested about 370,000 compounds, of which about 150 (0.041%) were called active. Calls follow the shape of the dose curve; as a rule, active = well fitted inhibition curve with a large enough effect; inconclusive = small, poorly fitted or top-dose-only effect; inactive = flat fitted curve, though single readings scatter. Inconclusive results, whose numbers are uncertain, are shown. No potency is given beside an inconclusive call; the fits are too rough.
Biological target: Beta-lactamase (Escherichia coli (strain K12)) (UniProt P00811)
Assay: qHTS Inhibitors of AmpC Beta-Lactamase (assay with detergent); also: nearly all actives have a fitted effect of over 25% in size
Settings: AmpC hydrolysis of nitrocefin, absorbance 480 nm, 0.01% Triton; series mostly up to 114 µM
Experimental: NIH Molecular Libraries Probe Production Network [MLPCN] NIH Chemical Genomics Center [NCGC] Assay Provider: Professor Brian Shoichet, UCSF Assay Overview: This aggregation profiling approach exploits the sensitivity of aggregate formation to detergent. Inhibition of b-lactamase is measured in the presence and absence of 0.01% Triton X-100. This particular assay had the prescence of 0.01% Triton X-100. See Pubchem assay "Promiscuous and Specific Inhibitors of AmpC Beta-Lactamase (assay without detergent)" for related screen. Compounds that inhibit only in the absence of detergent are considered likely promiscuous aggregators. A screen of 1,030 compounds was performed in Brian Shoichet's lab in 96-well format. AmpC activity was measured by following the absorbance at 480 nm. Nitrocefin is a chromogenic substrate: while nitrocefin is yellow (lmax 390 nm), the product of its hydrolysis is red (lmax 486 nm, 17,000 M-1). AmpC beta lactamase was provided by Shoichet Lab, UCSF.
Buffer: 20 mM phosphate buffer, pH 7.0 Triton X-100: No Detergent screen: 0.0001%, Detergent screen: 0.01%. Reagents/Controls: Buffer in columns 3 and 4 as negative control (no enzyme). 5.3 nM AmpC in columns 1, 2, 5-48. Titration of UCSF compound 9 control (from 10 mM, then 1:2) pin-transferred to column 2. Column 1 is neutral (100% activity). Assay Steps: Six uL of reagents were dispensed to 1536-well Greiner black clear bottom plates. Compounds and controls (23 nL) were transferred via Kalypsys PinTool. The plates were incubated for 15 min at room temperature, and then 2 uL of 800 uM solution of nitrocefin was added to start the reaction. The plates were immediately transferred to and read every 20 seconds for 4 min on ViewLux (Perkin-Elmer) High-throughput CCD imager using 480 nm absorbance protocol. During dispense, reagent bottles were kept submerged into 4 deg C water bath. Keywords: NIH Roadmap, MLSCN, MLI, MLSMR, qHTS, NCGC, AmpC Beta-Lactamase, Aggregation
Potency is read from the fitted curve at half-maximal effect; tags tell the direction and shape of the fitted curve.

UniProt P00811, sequence (P00811 whole entry, looked up): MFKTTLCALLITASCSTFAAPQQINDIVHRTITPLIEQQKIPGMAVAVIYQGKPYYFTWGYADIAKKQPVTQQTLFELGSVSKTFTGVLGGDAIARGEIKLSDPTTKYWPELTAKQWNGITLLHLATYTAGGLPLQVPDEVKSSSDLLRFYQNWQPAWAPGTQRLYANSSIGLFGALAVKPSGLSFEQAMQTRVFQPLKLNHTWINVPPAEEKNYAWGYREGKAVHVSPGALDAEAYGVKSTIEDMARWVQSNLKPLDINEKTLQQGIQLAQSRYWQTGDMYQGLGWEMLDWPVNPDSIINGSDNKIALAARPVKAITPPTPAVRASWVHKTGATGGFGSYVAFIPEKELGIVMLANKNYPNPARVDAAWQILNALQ

Compound	Potency
O=C(COc1ccc(Cl)cc1)Nc1cc(NC(=O)COc2ccc(Cl)cc2)cc(C(=O)O)c1	inconclusive [inhibitor, partial curve]
O=C(Nc1ccc(-c2nc3ccccc3[nH]2)cc1)c1ccccc1NS(=O)(=O)c1ccc(F)cc1	inconclusive [inhibitor, full curve, poor fit]
COc1cc(/C=C2\C(=N)N3N=C(S(C)(=O)=O)SC3=NC2=O)ccc1OC(=O)c1cccs1	inconclusive [inhibitor, full curve, poor fit]
